# According to PubChem BioAssay AID588591 (National Center for Advancing Translational Sciences (NCATS), 2011):
# Hit rate of the full screen: of about 390,000 compounds, about 4,700 (1.2%) were called active. Inconclusive means that the source gave no clear call. Such entries were picked first, then a sample of the others. The call rests on the fitted dose curve; in most records, active means well fitted inhibition curve with a large enough effect; inconclusive means small, poorly fitted or top-dose-only effect, or another doubt; inactive means no such curve, though single readings can be large or run the other way. Where the call is inconclusive, the potency comes from a doubtful curve fit.
# Biological target: DNA polymerase eta (Homo sapiens) (UniProt Q9Y253)
# Sequence of UniProt Q9Y253 (Q9Y253 whole entry, looked up): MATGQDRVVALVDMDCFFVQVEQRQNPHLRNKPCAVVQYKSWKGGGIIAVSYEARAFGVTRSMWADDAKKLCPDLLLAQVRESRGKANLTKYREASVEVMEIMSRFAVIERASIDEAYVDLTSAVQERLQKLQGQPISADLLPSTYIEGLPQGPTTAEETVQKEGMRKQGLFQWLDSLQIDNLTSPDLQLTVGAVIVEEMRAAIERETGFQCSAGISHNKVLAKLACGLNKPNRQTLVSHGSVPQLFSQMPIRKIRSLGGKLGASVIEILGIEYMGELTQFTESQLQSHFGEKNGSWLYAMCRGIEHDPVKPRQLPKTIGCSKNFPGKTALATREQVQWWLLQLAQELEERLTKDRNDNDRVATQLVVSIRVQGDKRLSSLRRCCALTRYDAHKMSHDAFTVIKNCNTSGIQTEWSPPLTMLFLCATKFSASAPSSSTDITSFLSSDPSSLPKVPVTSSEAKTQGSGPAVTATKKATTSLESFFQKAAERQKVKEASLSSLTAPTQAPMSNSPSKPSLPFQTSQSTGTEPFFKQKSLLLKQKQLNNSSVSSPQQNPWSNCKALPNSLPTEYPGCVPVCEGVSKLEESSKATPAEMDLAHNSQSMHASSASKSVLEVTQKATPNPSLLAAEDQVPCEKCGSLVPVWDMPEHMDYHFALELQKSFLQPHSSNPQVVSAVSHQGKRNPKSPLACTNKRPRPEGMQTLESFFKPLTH
# Assay: qHTS for Inhibitors of Polymerase Eta
# Settings: recombinant Pol eta, fluorescent DNA replication assay; series mostly up to 114 µM; activity change, negative = inhibition: at the top concentration
# Outline: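 Fluorescent replication assay: 50 nM final substrate added after a 15 min room-temperature compound preincubation with 10 nM enzyme. Signal taken at 0 min and again at 10 min.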
# On the % scale 0 is the no-effect control and ±100 the full control effect; potency means the concentration at half of the fitted maximal effect; tags describe the fitted curve by direction and shape.
Structure (SMILES),Potency,"activity change, negative = inhibition"
O=C(O)c1cccc(N/N=C/c2cn(-c3ccccc3)nc2-c2cccs2)c1,active: 79.4 µM,–
O=C(O)c1cccc(NC(=O)C2C3C=CC(C3)C2C(=O)O)c1 (centres undefined),"inconclusive: 25.1 µM [inhibitor, single point]",–
CN(C)S(=O)(=O)c1ccc2c(c1)nnn2CCNC(=O)Nc1ccc(Cl)cc1,–,inactive: -16.4%
CC(C)NC(=O)c1ccccc1S(=O)c1ccccc1C#N (centres undefined),"inconclusive: 17.8 µM [inhibitor, partial curve, poor fit]",–
CC(=O)OCC1=C(C(=O)O)N2C(=O)C(NC(=O)c3ccc(COc4ccc(Cl)cc4)o3)C2SC1 (centres undefined),active: 50.1 µM,–
O=C(N/N=C/c1cn(-c2ccccc2)nc1-c1cc2ccccc2o1)c1ccncc1,–,inactive: -7.25%
CC(C)Sc1oc(-c2ccco2)nc1S(=O)(=O)c1ccc(F)cc1,active: 70.8 µM,–
O=c1cc(CSc2n[nH]c(-c3ccncc3)n2)nc2sccn12,"inconclusive: 79.4 µM [inhibitor, partial curve]",–
Cc1cc(-c2n[nH]c(=S)n2-c2ccc(C)c(C)c2)no1,–,inactive: -12.4%
Cc1ccc(C(=O)COC(=O)C2CC3CCCC(C2)C3=O)cc1[N+](=O)[O-] (centres undefined),–,inactive: -8.61%
CC(=O)Nc1ccccc1Sc1ccc2c3c(cccc13)C(=O)N(c1ccc(C)cc1)C2=O,"inconclusive: 3.16 µM [inhibitor, full curve, poor fit]",–
C=CCOc1ccc(/C=C\c2nc(O)c([N+](=O)[O-])c(=O)[nH]2)cc1OC,active: 25.1 µM,–
O=C1NC(=Nc2ccc(O)cc2)S/C1=C\C=C\c1ccco1,active: 31.6 µM,–
Cc1ccc(NC2=C(Cl)C(=O)OC2NC(=O)c2ccccc2)cc1 (centres undefined),–,inactive: 6.1%
Cc1ccc(C)c(N2N=C(C(=O)OCc3nnc(-c4cccs4)o3)CCC2=O)c1,"inconclusive: 14.1 µM [inhibitor, full curve, poor fit]",–
CCOC(=O)c1nnc2cc(-c3ccc(Br)cc3)nn2c1C,"inconclusive: 35.5 µM [inhibitor, partial curve, poor fit]",–
O=C(Nc1ccc2c(c1)CCC2)c1cc(S(=O)(=O)Nc2ccc(F)cc2)c(Cl)cc1Cl,"inconclusive: 50.1 µM [inhibitor, partial curve, poor fit]",–
CCOC(=O)C(C(=O)OCC)C(c1ccccc1)N1CCN(c2ccccc2)CC1 (centres undefined),"inconclusive: 79.4 µM [inhibitor, partial curve, poor fit]",–
COc1ccc(S(=O)(=O)N2CCOC23CCN(C(=O)c2c(F)cccc2Cl)CC3)cc1,"inconclusive: 79.4 µM [inhibitor, partial curve, poor fit]",–
